From PubChem BioAssay AID2147 (National Center for Advancing Translational Sciences (NCATS), 2009)
The whole screen tested about 230,000 compounds, of which about 3,600 (1.6%) were called active. This list was built around the results that the source calls inconclusive (neither active nor inactive); the mix of calls is not that of the screen. Calls follow the shape of the dose curve; as a rule, active = well fitted inhibition curve with a large enough effect (not every such curve was filed as active); inconclusive = small, poorly fitted or top-dose-only effect, or another doubt; inactive = no such curve, though single readings can be large or run the other way. Potencies beside an inconclusive call are fits to weak or partial responses and may not hold up.
Also: nearly all actives have a fitted effect of over 50% in size.
Potency is read from the fitted curve at half-maximal effect; tags tell the direction and shape of the fitted curve.

Each compound was assayed against Lysine-specific demethylase 4E (Homo sapiens) (UniProt B2RXH2) (assay: qHTS Assay for Inhibitors of Human Jumonji Domain Containing 2E (JMJD2E)). Details: JMJD2E catalytic domain, FDH-coupled NADH fluorescence (FDH is formaldehyde dehydrogenase); series mostly up to 57.1 µM.
Sequence of UniProt B2RXH2 (B2RXH2 whole entry, looked up, the tested form may be a part): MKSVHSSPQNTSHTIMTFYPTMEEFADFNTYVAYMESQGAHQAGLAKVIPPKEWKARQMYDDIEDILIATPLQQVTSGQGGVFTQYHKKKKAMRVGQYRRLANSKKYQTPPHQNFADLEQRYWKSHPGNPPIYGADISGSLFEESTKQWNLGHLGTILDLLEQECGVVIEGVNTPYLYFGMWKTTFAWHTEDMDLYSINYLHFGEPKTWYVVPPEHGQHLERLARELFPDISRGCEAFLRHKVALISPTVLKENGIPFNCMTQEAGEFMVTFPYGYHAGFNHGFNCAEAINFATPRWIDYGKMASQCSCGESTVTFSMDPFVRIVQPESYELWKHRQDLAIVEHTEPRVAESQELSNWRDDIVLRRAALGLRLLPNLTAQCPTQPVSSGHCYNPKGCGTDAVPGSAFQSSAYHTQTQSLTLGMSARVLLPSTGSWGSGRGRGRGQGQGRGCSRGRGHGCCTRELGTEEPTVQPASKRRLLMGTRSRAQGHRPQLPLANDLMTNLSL
For COC(=O)C1CCN(C2=C(NS(=O)(=O)c3ccc(Cl)cc3)C(=O)c3ccccc3C2=O)CC1, the Potency was “inactive”. For Cc1[nH]nc(N=Cc2c(O)n(C)c(=O)n(C)c2=O)c1-c1ccccc1, the Potency was inconclusive: 7.08 µM [inhibitor, single point]. In the case of COc1ccc(/C=C\C(=O)c2c(O)ccc3c(C)cc(=O)oc23)cc1, the Potency was inconclusive: 35.5 µM [inhibitor, single point]. In the case of Cc1ccccc1C(=O)Nc1nc(-c2cccnc2)cs1, the Potency was inconclusive: 28.2 µM [inhibitor, partial curve]. In the case of CN1CCN(C(=O)c2cc(COc3c(F)cccc3F)on2)CC1c1ccccc1 (stereo not drawn), the Potency was inconclusive: 31.6 µM [inhibitor, single point]. CCn1ncc(C2=NOC(C(=O)NCc3ccc(Cl)cc3)C2)c1C (stereo not drawn) was tested, and the Potency was “inactive”. With CCOc1ccc2nc(/N=C/c3c(C)[nH]n(-c4ccccc4)c3=O)sc2c1 the Potency was “inactive”. With Cc1nc(S/C(=C/c2ccc(OCc3ccc(C(=O)O)cc3)cc2)C(=O)O)n[nH]1 the Potency was inconclusive: 39.8 µM [inhibitor, single point]. In the case of CCOc1ccc(-c2cc3cc(OC)c(OC)cc3c(C)n2)cc1, the Potency was inconclusive: 3.16 µM [inhibitor, partial curve]. With COc1ccc(-c2nc(-c3ccccc3OC)no2)cc1OC the Potency was inconclusive: 28.2 µM [inhibitor, partial curve]. For O=c1c2cc(N3CCOCC3)ccc2[nH]c(=S)n1CCc1ccccc1, the Potency was inconclusive: 31.6 µM [inhibitor, partial curve]. With NC(=O)c1nsc(C(=O)N(c2cccc(F)c2)C(C(=O)NCC2CCCO2)c2cccs2)c1N (stereo not drawn) the Potency was inconclusive: 28.2 µM [inhibitor, partial curve]. In the case of CCCCCc1cc(=O)oc2c(C(CCN3CCCC3)c3ccc(N(C)C)cc3)c(OC)cc(OC)c12 (stereo not drawn), the Potency was inconclusive: 28.2 µM [inhibitor, single point]. Oc1c(C(c2ccccc2)N2CCc3ccccc3C2)sc2ncnn12 (stereo not drawn) was tested, and the Potency was “inactive”. COc1ccc2nc(-c3ccccc3)cc(OC)c2c1 was tested, and the Potency was inconclusive: 31.6 µM [inhibitor, single point]. Cc1ccc(C)c(Cn2nnc3c(=O)[nH]c(C4CCN(C(=O)c5cccs5)CC4)nc32)c1 was tested, and the Potency was “inactive”. With NS(=O)(=O)c1cccc(NC(=O)CSc2ncc(C(F)(F)F)cc2Cl)c1 the Potency was inconclusive: 31.6 µM [inhibitor, single point]. C=CCc1c(C)nc(SC)nc1Nc1ccc(C(C)=O)cc1 was tested, and the Potency was inconclusive: 28.2 µM [inhibitor, single point]. For COc1ccc(N2C(=O)[C@H]3[C@@H](C2=O)C2c4ccccc4C=NN2[C@H]3C(=O)C(C)(C)C)cc1 (stereo partly drawn), the Potency was “inactive”. With COc1ccc(-c2nc(CN3CCCC(C(=O)NC4CCCC4)C3)c(C)o2)cc1 (stereo not drawn) the Potency was inconclusive: 39.8 µM [inhibitor, single point]. CCOc1cc(N2CCOCC2)c(OCC)cc1NC(=O)c1ccc(S(C)(=O)=O)cc1 was tested, and the Potency was inconclusive: 35.5 µM [inhibitor, single point]. In the case of COc1cc(C(=O)NCCCNc2nc3cc(C)cc(C)c3cc2C#N)cc(OC)c1OC, the Potency was inconclusive: 28.2 µM [inhibitor, partial curve]. In the case of C=CCN1C=C2C(=O)C(C)(OC(=O)CCC(=O)OC)C(=O)C(Br)=C2C=C1c1ccc(OC)cc1 (stereo not drawn), the Potency was active: 7.94 µM. For Cc1c(/C=C/C(=O)c2ccccc2)cnn1C, the Potency was inconclusive: 39.8 µM [inhibitor, single point]. For O=S1(=O)C=CC(c2ccccc2)C1 (stereo not drawn), the Potency was “inactive”. CCOC(=O)c1cc(-c2ccccc2)sc1N was tested, and the Potency was “inactive”. CCCOC(=S)N/C(=N\S(=O)(=O)c1ccccc1)c1ccccc1 was tested, and the Potency was “inactive”. In the case of COc1cc(OC)cc(-c2cc3nc(C)c(CCC(=O)O)c(C)n3n2)c1, the Potency was inconclusive: 28.2 µM [inhibitor, partial curve]. Cc1cc(C)c(NS(=O)(=O)c2ccc(NC(=O)c3cccs3)cc2)c(C)c1 was tested, and the Potency was “inactive”. For O=C(CN1CCN(C2CCCCC2)CC1)c1ccc2cc[nH]c2c1, the Potency was inconclusive: 31.6 µM [inhibitor, partial curve]. CC(=O)Oc1ccc(C(=O)O)c(OC(C)=O)c1 was tested, and the Potency was inconclusive: 35.5 µM [inhibitor, single point]. For COc1cccc2[nH]c3c(N4CCc5ccccc5C4)ncnc3c12, the Potency was inconclusive: 8.91 µM [inhibitor, partial curve]. For COc1ccccc1C1C=C(c2ccc(C)cc2)Nc2nnnn21 (stereo not drawn), the Potency was inconclusive: 39.8 µM [inhibitor, single point]. With CCCCN(C)C(=O)Cc1c(OC)ccc2cc(Br)ccc12 the Potency was “inactive”. For O=C(Nc1cccc2c1C(=O)NC2=O)c1ccc(S(=O)(=O)N2CCCC2)cc1, the Potency was inconclusive: 12.6 µM [inhibitor, partial curve]. With O=[N+]([O-])c1ccccc1S(=O)(=O)NCCc1ccncc1 the Potency was “inactive”. With COCCN(Cc1cc2cccc(C)c2[nH]c1=O)C(=O)c1ccccc1 the Potency was inconclusive: 39.8 µM [inhibitor, single point]. O=C(Nc1ccccc1)N1CCSc2ccccc21 was tested, and the Potency was inconclusive: 39.8 µM [inhibitor, single point]. CCC(=O)Nc1sc2c(c1C(N)=O)CCC2 was tested, and the Potency was inconclusive: 35.5 µM [inhibitor, single point]. O=c1c(Cl)c(N/N=C/c2ccc(Cl)cc2)cnn1-c1ccccc1 was tested, and the Potency was inconclusive: 31.6 µM [inhibitor, partial curve]. In the case of CCn1c(CSc2nccn2C)nc2cc(C(=O)O)ccc21, the Potency was inconclusive: 35.5 µM [inhibitor, partial curve]. With Cc1ccc(COc2ccccc2C(=S)N2CCCC2)cc1 the Potency was “inactive”. COc1ccc2oc(-c3ccccc3)c(C(=O)N3CCOCC3)c2c1 was tested, and the Potency was inconclusive: 31.6 µM [inhibitor, partial curve]. Cc1c(C(=O)N(C)C)sc(NC(=O)c2cccc([N+](=O)[O-])c2)c1C#N was tested, and the Potency was “inactive”. With CC(C)C(=O)Nc1ccc(C(=O)NNC(=S)NC(=O)c2ccco2)cc1 the Potency was inconclusive: 39.8 µM [inhibitor, single point]. With CCSc1nnc(NC(=O)c2nc(-c3ccccc3)n(-c3ccccc3)n2)s1 the Potency was inconclusive: 39.8 µM [inhibitor, single point]. For CCOC(=O)c1[nH]cnc1C(=O)Nc1cccc(Cl)c1, the Potency was “inactive”. O=C(N/N=C/c1cc2c(cc1[N+](=O)[O-])OCO2)c1cccnc1 was tested, and the Potency was “inactive”. In the case of O=C(COC(=O)c1ccc(O)cc1)NCCC1=CCCCC1, the Potency was “inactive”. For Cn1c(CNc2ccccc2O)nc2ccccc21, the Potency was inconclusive: 14.1 µM [inhibitor, partial curve]. In the case of Cc1cccc(-n2c(N)c(-c3nc4ccccc4n3C)c3nc4ccccc4nc32)c1, the Potency was inconclusive: 28.2 µM [inhibitor, single point]. For Cc1cc(Cl)ccc1OCCCC(=O)N1CCCc2ccccc21, the Potency was “inactive”. For CCN1CCCC1CNC(=O)c1ccc2c(=O)n(CCOC)c(=O)[nH]c2c1 (stereo not drawn), the Potency was inconclusive: 25.1 µM [inhibitor, partial curve]. For COCCOC(=O)c1c(NC(=O)CN2CCc3ccccc32)sc(C(N)=O)c1C, the Potency was “inactive”. O=C(COC(=O)c1ccccc1NC(=O)c1ccco1)NCCC1=CCCCC1 was tested, and the Potency was inconclusive: 35.5 µM [inhibitor, single point]. O=S1(=O)[C@H]2C[C@@H]3CC[C@]2(CN1Cc1cccc(F)c1)O3 was tested, and the Potency was “inactive”. In the case of Cc1oc(-c2cccc(F)c2)nc1CN1CCCCC1CCn1cccn1 (stereo not drawn), the Potency was “inactive”. For COc1ccc(C(=O)/C=C/c2ccc(O)cc2)c(O)c1CC=C(C)C, the Potency was “inactive”. In the case of C/C(=N\NC(=O)Cn1nc(C)c([N+](=O)[O-])c1C)c1ccc(Cl)s1, the Potency was “inactive”. With Cc1ccccc1N(CC(=O)N/N=C/c1cc(Br)c(C)o1)S(C)(=O)=O the Potency was “inactive”. With N#Cc1c(Nc2ccccc2)sc(C(=O)c2ccc(F)cc2)c1N the Potency was “inactive”. For Cc1ccc(C(=O)N/C(=C/c2ccccc2)C(=O)NC(Cc2ccccc2)C(=O)O)cc1 (stereo not drawn), the Potency was “inactive”. In the case of Cc1cc(C(F)(F)F)c(C#N)c(=O)[nH]1, the Potency was inconclusive: 31.6 µM [inhibitor, partial curve]. In the case of COc1ccc(CNCc2cc3c(C(C)(C)C)nn(-c4ccccc4)c3[nH]c2=O)cc1, the Potency was inconclusive: 28.2 µM [inhibitor, partial curve]. CN1/C(=C\C(=O)CSc2cccc[n+]2[O-])C(C)(C)c2ccccc21 was tested, and the Potency was inconclusive: 25.1 µM [inhibitor, single point]. In the case of COCCNC(=S)NNc1ccc(Cl)c(C(=O)O)c1, the Potency was inconclusive: 5.62 µM [inhibitor, partial curve]. In the case of N#Cc1ccccc1NC(=O)Nc1cccs1, the Potency was inconclusive: 39.8 µM [inhibitor, single point]. For COc1cccc(-c2nc(-c3ccc(NC(=O)c4cccs4)cc3)no2)c1, the Potency was inconclusive: 35.5 µM [inhibitor, single point]. With CCCCN(C)S(=O)(=O)c1ccc(C(=O)Nc2nnc(CSC)o2)cc1 the Potency was inconclusive: 39.8 µM [inhibitor, single point]. In the case of Cn1c(=O)n(C)c2cc(/C=N/NC(=S)NCc3ccccc3)ccc21, the Potency was inconclusive: 28.2 µM [inhibitor, partial curve]. In the case of CCCC1CC(C)(/C(C)=N\NC(N)=S)OC1=O (stereo not drawn), the Potency was “inactive”. O=C(Nc1nc2c(s1)CCc1ccccc1-2)c1cccs1 was tested, and the Potency was “inactive”. COc1c(C)cc(C(=O)C2CCCN(C(=O)c3cc(C)nc(C)n3)C2)cc1C (stereo not drawn) was tested, and the Potency was inconclusive: 39.8 µM [inhibitor, single point].
